Test results from article PMC4336329 (PLoS ONE, 2015).
Hit rate of the full screen: of about 310,000 compounds, about 14,000 (4.5%) showed an effect of 50% or more. Effects have a minus sign here. The list shows a part of the results.

target: human ether-à-go-go-related gene (hERG) potassium channel (human, UniProt Q12809); experiment: primary screen, population patch clamp on CHO cells stably expressing hERG
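Also: peak tail current of the secondary pulse compared with the same well before compound.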

Chain of human ether-à-go-go-related gene (hERG) potassium channel (Q12809 whole entry, looked up): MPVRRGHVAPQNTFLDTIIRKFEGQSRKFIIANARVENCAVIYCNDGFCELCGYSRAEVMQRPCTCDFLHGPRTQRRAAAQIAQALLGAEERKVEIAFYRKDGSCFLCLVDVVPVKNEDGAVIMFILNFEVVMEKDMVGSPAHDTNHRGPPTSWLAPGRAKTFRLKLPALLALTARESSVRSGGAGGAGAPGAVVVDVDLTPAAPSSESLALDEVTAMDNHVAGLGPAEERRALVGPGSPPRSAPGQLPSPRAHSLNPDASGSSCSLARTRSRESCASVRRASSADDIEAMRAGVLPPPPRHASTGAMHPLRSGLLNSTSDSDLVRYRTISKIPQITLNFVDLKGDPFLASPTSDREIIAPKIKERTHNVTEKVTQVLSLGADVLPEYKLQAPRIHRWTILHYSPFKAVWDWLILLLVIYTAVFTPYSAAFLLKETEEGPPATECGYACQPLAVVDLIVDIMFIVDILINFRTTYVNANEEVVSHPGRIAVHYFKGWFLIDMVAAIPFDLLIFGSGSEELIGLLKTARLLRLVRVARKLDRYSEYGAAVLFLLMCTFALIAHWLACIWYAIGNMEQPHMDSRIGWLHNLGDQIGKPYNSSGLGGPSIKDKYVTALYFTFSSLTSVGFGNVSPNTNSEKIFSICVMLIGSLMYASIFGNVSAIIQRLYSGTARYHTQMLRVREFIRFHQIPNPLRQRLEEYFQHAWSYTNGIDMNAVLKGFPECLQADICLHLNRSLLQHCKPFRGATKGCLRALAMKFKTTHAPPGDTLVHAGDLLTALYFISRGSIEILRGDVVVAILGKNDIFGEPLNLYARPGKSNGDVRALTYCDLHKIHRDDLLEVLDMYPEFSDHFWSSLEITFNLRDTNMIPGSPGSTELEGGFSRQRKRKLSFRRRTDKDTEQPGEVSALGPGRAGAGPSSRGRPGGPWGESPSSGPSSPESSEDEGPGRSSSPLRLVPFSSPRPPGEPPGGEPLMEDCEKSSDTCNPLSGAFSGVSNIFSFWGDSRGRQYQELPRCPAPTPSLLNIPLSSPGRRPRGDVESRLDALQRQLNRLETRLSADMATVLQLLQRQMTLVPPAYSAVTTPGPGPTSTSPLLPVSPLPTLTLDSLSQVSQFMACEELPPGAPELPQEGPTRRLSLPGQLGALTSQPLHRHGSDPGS

SMILES | hERG current change (%, negative = inhibition) at 10uM [%]
COc1ccc(/C(O)=C2\C(=O)C(=O)N(CCN(C)C)C2c2cc(OC)c(OC)c(OC)c2)c(C)c1 (centres unmarked) | 3.79
Cl.O=C(NCCCN1CCOCC1)c1ccc(Cl)c(S(=O)(=O)N2CCCCCC2)c1 | -50.6
C=COCCNC(=S)Nc1ccccc1 | 9.6
CS(=O)(=O)NCc1ccc(C(=O)NCc2ccccc2)cc1 | -8.76
O=C(NCc1ccc2c(c1)OCO2)C(=O)NCC1CCCO1 (centres unmarked) | 15.2
Cc1cccc(NS(=O)(=O)c2cccs2)c1 | 8.96
Nc1cc(C(=O)OCC(=O)N2CCC(Cc3ccccc3)CC2)ccc1Cl | -12
COC(=O)C1=C(C)Nc2ncnn2C1c1ccc(OC(=O)c2ccccc2)cc1 (centres unmarked) | 2.21
COCCN(Cc1nnc(-c2cccs2)o1)C(=O)c1cccc(S(=O)(=O)N2CCOCC2)c1 | -18
CC(NC(=O)COC(=O)C1CCN(c2ccc(C(F)(F)F)cn2)CC1)c1ccc(F)cc1 (centres unmarked) | 6.31
O=C(Nc1nnc(SCC(=O)N2CCOCC2)s1)C1CC(=O)N(c2ccccc2)C1 (centres unmarked) | 26.7
Cc1noc(NS(=O)(=O)c2ccc(NC(=O)CC34CC5CC(CC(Br)(C5)C3)C4)cc2)c1C | 12.2
COC(=O)c1ccc(NC(=O)CN2CCN(CCO)CC2)cc1.Cl | -5.29
CCCC(NS(=O)(=O)c1ccc(-c2ccc(=O)[nH]n2)s1)c1cccs1 (centres unmarked) | -13
FC(F)(F)c1cccc(N2CCN(C(=S)NC3CCCC3)CC2)c1 | 11.4
COc1ccc(-c2nc3ccccn3c2/N=C/c2ccc(OC)c(OC)c2)cc1O | -24.1
O=c1c2ccccc2nc(/C=C/c2ccc3c(c2)OCO3)n1-c1ccccc1 | -26
Cl.NCc1cc2c3c(c1)CCCN3CCC2 | 22.3
CCOc1ccc(NCc2nc3ccccc3n2CCOc2ccccc2)cc1 | -11.6
CC(C)(C)C(=O)Nc1cc2c3c(c1)CCN3C(=O)CC2 | 10.6
CCOC(=O)N1CCC(NC(=O)c2cccnc2SC)CC1 | 22
COCCNC(=O)CSc1nc2cc3c(cc2c(=O)n1Cc1ccco1)OCO3 | -27.4
Nc1ccccc1S(=O)(=O)c1ccccc1N | 16.2

SMILES | hERG current change (%, negative = inhibition) at 10uM [%]
O=[N+]([O-])c1cc([N+](=O)[O-])c(Oc2cc(F)cc(F)c2)cc1NN1CCCCC1 | 24.3
CCOc1ccc(S(=O)(=O)N(CC(=O)Nc2cc(C)on2)Cc2ccccc2Cl)cc1 | -2.63
O=C(CS(=O)Cc1ccccc1Cl)Nc1ccccc1Cl (centres unmarked) | 23.9
Cn1ncc2c(O/N=C(\N)c3ccc(C(C)(C)C)cc3)ncnc21 | 0.167
O=C(NC(N1CCOCC1)C(Cl)(Cl)Cl)c1ccc(F)cc1 (centres unmarked) | 6.59
Cc1cccc(NC(=O)c2ccc(NS(=O)(=O)c3c(C)noc3C)cc2)c1 | -36.8
COc1ccccc1CCN=C(N)NS(=O)(=O)c1ccccc1F | -7.73
Nc1nonc1-n1nnc(C(=O)N/N=C/c2ccc(Br)cc2)c1CN1CCOCC1 | -21
COc1ccc(C=O)cc1Cn1cnc2c(cnn2C)c1=O | 12.3
Cc1nn(CC(=O)N2CCOCC2)c(C)c1[N+](=O)[O-] | 7.23
Cc1nc2c(Cl)c(C)nn2c2c1CCC2 | 2.55
CC(C(=O)N1CCCCCC1)c1ccc([N+](=O)[O-])cc1 (centres unmarked) | -25.8
CCCCCCOc1ccc(/C(C)=N/NC2=NCCN2)cc1[N+](=O)[O-] | -81.3
Cc1c(NC(=O)Nc2ccc(Cl)cc2Cl)c(=O)n(-c2ccccc2)n1C | 1.09
CCOC(=O)c1[nH]c2ccccc2c1NC(=O)C1CCCCC1 | 20.9
CCCN(CCC)Cc1cc(=O)oc2cc3c(cc12)CCC3 | -9.37
O=C(Nc1cc(C(F)(F)F)ccc1N1CCOCC1)c1cccnc1Cl | -4.26
COc1cc(C=C2C(=O)c3ccccc3C2=O)ccc1O | 6.54
CCCn1c(C(CO)Nc2nc(C)cs2)nc2ccccc21 (centres unmarked) | -5.83
CCC(C)[C@H](NC(=O)[C@H](Cc1ccccc1)n1c(=O)[nH]c2ccccc2c1=O)C(=O)N1CCC[C@@H]1C(=O)O (some centres unmarked) | 12.8
C=CCn1c(-c2cc(-c3ccc(C)cc3)nc3ccccc23)n[nH]c1=S | 9.35
Cc1ccc(/C=N/NC(=O)c2ccccc2OCc2ccc(F)cc2)o1 | -15.4
O=C(NC1CCCCC1)C1CC(O)CN1C(=O)OCc1ccccc1 (centres unmarked) | 4.62

SMILES | hERG current change (%, negative = inhibition) at 10uM [%]
Cc1nc2ccc(Br)cc2c(=O)n1-c1ccc([N+](=O)[O-])c(C(F)(F)F)c1 | 6.86
CCCCOC(=O)n1c(SCC(=O)N(CC)CC)nc2ccccc21 | -34.7
Cc1ccc(C)c(S(=O)(=O)N2CCCC2CNC(=O)C(=O)NC2CCCCCC2)c1 (centres unmarked) | 7.56
Cc1ccc(-c2noc(CSc3nc(N)cc(N)n3)n2)cc1 | -4.24
COc1ccc(C2/C=C\CN(S(=O)(=O)c3ccc(C)cc3)CC(=O)N2Cc2ccc(F)cc2)cc1 (centres unmarked) | 1
O=C(CN(Cc1ccccc1)C(=O)CCC(=O)Nc1ccccn1)NCc1ccco1 | -9.23
CC(=O)C(Sc1ncnc2sc3c(c12)CCCC3)C(C)=O | 29.3
CSc1ccc(/C=N/NC(=O)C[n+]2ccccc2)cc1.[Cl-] | -1.94
Cc1nc(C)n(C(=O)N(c2ccccc2)c2ccccc2)n1 | 7.63
Cc1oc(-c2ccc(Cl)cc2)nc1CS(=O)CC(=O)NCCCN1CCN(Cc2ccccc2)CC1 (centres unmarked) | -62.1
COc1ccc(-c2onc(C)c2-c2ccc(C(=O)OC(C)C)o2)c(O)c1 | -6.38
Cc1ccc(C(=O)COC(=O)COc2ccc(C)c(C)c2)cc1 | -4.39
CC1CC(C)CN(CC(=O)N2c3ccccc3CCc3ccccc32)C1.O=C(O)C(=O)O (centres unmarked) | 3.57
CC(=O)Nc1ccc(NC(=O)C(C)OC(=O)CCc2c[nH]c3ccccc23)cc1 (centres unmarked) | -1.46
CC(C)Oc1nnnn1-c1ccccc1 | 4.64
CC(C)c1ccc(N(C(=O)c2snc(C(N)=O)c2N)C(C(=O)NC2CCCC2)c2ccncc2)cc1 (centres unmarked) | 7.77
CC1CCN(CC(=O)NCCc2ccc(F)cc2)CC1.O=C(O)C(=O)O | -3.7
COC(=O)CCC(=O)N1CCCC(C(=O)c2ccc(Cl)cc2C)C1 (centres unmarked) | -5.75
CC(=O)Nc1ccc(C(=O)N2CCCc3ccccc32)cc1 | -6.92
NC(=O)c1nn(-c2ccccc2)c(=O)cc1O | -17.8
Cc1ccc(-c2nn(-c3ccccn3)c(=O)c3ccccc23)cc1 | -15.6
COc1cc(/C=N/n2cnnc2)ccc1OCc1ccccc1 | 6.55
Cc1ccc(C(=O)Nc2ccccc2C(=O)NCC2CCCO2)cc1 (centres unmarked) | -16.1

SMILES | hERG current change (%, negative = inhibition) at 10uM [%]
CC1CCCC(NC(=S)Nc2ccc(SC(F)F)cc2)C1C (centres unmarked) | -7.43
Cc1ccc(C(=O)NC2CCCCNC2=O)cc1C (centres unmarked) | 5.77
Cc1nc(/C=C/c2ccccc2)[nH]c(=O)c1-c1ccccc1 | 10.1
COc1cc(OC)c(C(=O)Nc2cc(Cl)ccc2-n2cncn2)cc1OC | -55
NC(=S)N/N=C/c1cccc(/C=N/NC(N)=S)c1 | 11
Cc1cc(C)n2nc(C(=O)OCC(=O)NC3CCCCC3)nc2n1 | 1.56
CCc1noc(C)c1C(=O)N(CCC(C)C)c1c(N)n(Cc2ccccc2)c(=O)[nH]c1=O | -2.55
CCN1CCN(Cc2ccc(NC(=O)c3ccc(C)c(NC(=O)c4cccc(-c5cn[nH]c(=O)c5)c4)c3)cc2C(F)(F)F)CC1.O=C(O)C(F)(F)F | -5.8
CN(C)C(/C=C/Nc1ccc(C#N)cc1)=C(C#N)C#N | -23.2
Cc1cc(C)cc(NC(=O)CSc2nc3ccncc3[nH]2)c1 | 8.99
Cc1cc(Cl)ccc1OCCn1cncn1 | -8.04
CCn1cc(CNC(=O)c2cccc([N+](=O)[O-])c2)cn1 | -11.1
CC(C)Sc1nnc([C@@H](N)Cc2ccccc2)o1.Cl | 5.89
O=c1cc(CO)oc(CN2CCN(Cc3ccccc3)CC2)c1O | 8.06
Cc1nc2ccccc2n1C1CC(=O)N(N(C)C)C1=O (centres unmarked) | 7.61
O=CN1CCN(C(=S)Nc2ccc(OC(F)F)cc2)CC1 | -9.52
COc1cc(OC)c(C2C(C(=O)O)c3ccccc3C(=O)N2C)cc1OC (centres unmarked) | 10.3
CSc1ccc(Cl)c(C(=O)Nc2ccc(N3CCOCC3)cc2)c1 | -1.67
COc1ccc(CNCCc2c[nH]c3ccccc23)c(OC)c1C.O=C(O)C(=O)O | -60.3
c1c(C2CCCCC2)n[nH]c1CN1CCCCC1 | -53.9
